Experimental data: the supplement of paper PMC12217912
Some of the results follow. Sequences were assembled here from the parent chain. Inactive controls read about 0.05.

B1: TEV protease; numbered along this chain (parent)
chain: MGESLFKGPRDYNPISSSICHLTNESDGHTTSLYGIGFGPFIITNKHLFRRNNGTLVVQSLHGVFKVKDTTTLQQHLVDGRDMIIIRMPKDFPPFPQKLKFREPQREERICLVTTNFQTKSMSSMVSDTSCTFPSGDGIFWKHWIQTKDGQCGSPLVSTRDGFIVGIHSASNFTNTNNYFTSVPKNFMELLTNQEAQQWVSGWRLNADSVLWGGHKVFMVKPEEPFQPVKEATQL

Variants of: B1
Assay: raw area under fraction-flipped curve 0-4 h after induction (AUC4h, not background-subtracted), DNA-recorder readout of cleavage of the substrate (dimensionless); higher = more cleavage of the substrate by the protease variant
Conditions: temperature: 34 °C; time window: 0-4 h after rhamnose induction
Method: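 In vivo DNA recorder in E. coli TOP10(DE3) ΔrhaA at 34 °C. Each TEVp single-site mutant (parent TEVp 0) is paired with a single-site variant of the 7-mer TEVs (canonical ENLYFQ|S). The substrate sits between flexible linkers in a Bxb1-sfGFP-TEVs-SsrA fusion, so cleavage stabilises Bxb1 and speeds flipping of a recombination array, read by NGS. The value is the raw area under the fraction-flipped curve over 0-4 h after rhamnose induction (AUC4h), with ≥20 reads per time point. It is not background-subtracted; inactive controls average about 0.047.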
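Note: Bxb1 expression induced with 0.2% (w/v) L-rhamnose at OD600 near 0.5, cultures sampled hourly, flipped fraction per protease–substrate barcode pair counted by paired-end Illumina sequencing.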

MGESLFKGPRDYNPISSSICHLTNESDGHTTSLYGIGFGPFIITNKHLFRRNNGTLVVQSLHGVFKVKDTTTLQQHLVDGRDMIIIRMPKDFPPFPQKLKFREPQREERICLPTTNFQTKSMSSMVSDTSCTFPSGDGIFWKHWIQTKDGQCGSPLVSTRDGFIVGIHSASNFTNTNNYFTSVPKNFMELLTNQEAQQWVSGWRLNADSVLWGGHKVFMVKPEEPFQPVKEATQL [V113P]
area with substrate ANLYFQS: 0.0653 | area with substrate CNLYFQS: 0.0563 | area with substrate DNLYFQS: 0.0479 | area with substrate FNLYFQS: 0.0525 | area with substrate GNLYFQS: 0.073 | area with substrate HNLYFQS: 0.0517 | area with substrate INLYFQS: 0.0497 | area with substrate LNLYFQS: 0.073 | area with substrate MNLYFQS: 0.0577 | area with substrate NNLYFQS: 0.0326 | area with substrate PNLYFQS: 0.0615 | area with substrate SNLYFQS: 0.0779 | area with substrate TNLYFQS: 0.0628 | area with substrate VNLYFQS: 0.0606 | area with substrate WNLYFQS: 0.0658 | area with substrate YNLYFQS: 0.0468

MGESLFKGPRDYNPISSSICHLTNESDGHTTSLYGIGFGPFIITNKHLFRRNNGTLVVQSLHGVFKVKDTTTLQQHLVDGRDMIIIRMPKDFPPFPQKLKFREPQREERICLVTTQFQTKSMSSMVSDTSCTFPSGDGIFWKHWIQTKDGQCGSPLVSTRDGFIVGIHSASNFTNTNNYFTSVPKNFMELLTNQEAQQWVSGWRLNADSVLWGGHKVFMVKPEEPFQPVKEATQL [N116Q]
area with substrate ANLYFQS: 0.0421 | area with substrate CNLYFQS: 0.0639 | area with substrate DNLYFQS: 0.085 | area with substrate FNLYFQS: 0.0699 | area with substrate HNLYFQS: 0.0499 | area with substrate INLYFQS: 0.0625 | area with substrate LNLYFQS: 0.0671 | area with substrate MNLYFQS: 0.0445 | area with substrate NNLYFQS: 0.0732 | area with substrate PNLYFQS: 0.0826 | area with substrate TNLYFQS: 0.0497 | area with substrate VNLYFQS: 0.0839 | area with substrate WNLYFQS: 0.0543 | area with substrate YNLYFQS: 0.0512

MGESLFKGPRDYNPISSSICHLTNESDGHTTSLYGIGFGPFIITNKHLFRRNNGTLVVQSLHGVFKVKDTTTLQQHLVDGRDMIIIRMPKDFPPFPQKLKFREPQREERICLVTTDFQTKSMSSMVSDTSCTFPSGDGIFWKHWIQTKDGQCGSPLVSTRDGFIVGIHSASNFTNTNNYFTSVPKNFMELLTNQEAQQWVSGWRLNADSVLWGGHKVFMVKPEEPFQPVKEATQL [N116D]
area with substrate ANLYFQS: 0.0741 | area with substrate CNLYFQS: 0.0742 | area with substrate DNLYFQS: 0.0825 | area with substrate GNLYFQS: 0.0822 | area with substrate HNLYFQS: 0.0614 | area with substrate INLYFQS: 0.0551 | area with substrate KNLYFQS: 0.0666 | area with substrate LNLYFQS: 0.0658 | area with substrate MNLYFQS: 0.0578 | area with substrate NNLYFQS: 0.0975 | area with substrate QNLYFQS: 0.0726 | area with substrate VNLYFQS: 0.0748 | area with substrate WNLYFQS: 0.0567 | area with substrate YNLYFQS: 0.06

MGESLFKGPRDYNPISSSICHLTNESDGHTTSLYGIGFGPFIITNKHLFRRNNGTLVVQSLHGVFKVKDTTTLQQHLVDGRDMIIIRMPKDFPPFPQKLKFREPQREERICLVFTNFQTKSMSSMVSDTSCTFPSGDGIFWKHWIQTKDGQCGSPLVSTRDGFIVGIHSASNFTNTNNYFTSVPKNFMELLTNQEAQQWVSGWRLNADSVLWGGHKVFMVKPEEPFQPVKEATQL [T114F]
area with substrate ANLYFQS: 0.0512 | area with substrate CNLYFQS: 0.0679 | area with substrate DNLYFQS: 0.0691 | area with substrate GNLYFQS: 0.0655 | area with substrate HNLYFQS: 0.0638 | area with substrate KNLYFQS: 0.0601 | area with substrate LNLYFQS: 0.0804 | area with substrate NNLYFQS: 0.0612 | area with substrate PNLYFQS: 0.0675 | area with substrate TNLYFQS: 0.0742 | area with substrate VNLYFQS: 0.0374 | area with substrate YNLYFQS: 0.0444

MGESLFKGPRDYNPISSSICHLTNESDGHTTSLYGIGFGPFIITNKHLFRRNNGTLVVQSLHGVFKVKDTTTLQQHLVDGRDMIIIRMPKDFPPFPQKLKFREPQREERICLVTTNFQTKSMSSVVSDTSCTFPSGDGIFWKHWIQTKDGQCGSPLVSTRDGFIVGIHSASNFTNTNNYFTSVPKNFMELLTNQEAQQWVSGWRLNADSVLWGGHKVFMVKPEEPFQPVKEATQL [M125V]
area with substrate ANLYFQS: 0.0739 | area with substrate CNLYFQS: 0.0691 | area with substrate DNLYFQS: 0.0758 | area with substrate FNLYFQS: 0.0625 | area with substrate HNLYFQS: 0.0696 | area with substrate KNLYFQS: 0.0885 | area with substrate LNLYFQS: 0.0838 | area with substrate NNLYFQS: 0.0663 | area with substrate PNLYFQS: 0.0779 | area with substrate QNLYFQS: 0.0776 | area with substrate RNLYFQS: 0.0646 | area with substrate SNLYFQS: 0.0712 | area with substrate WNLYFQS: 0.0856 | area with substrate YNLYFQS: 0.075

MGESLFKGPRDYNPISSSICHLTNESDGHTTSLYGIGFGPFIITNKHLFRRNNGTLVVQSLHGVFKVKDTTTLQQHLVDGRDMIIIRMPKDFPPFPQKLKFREPQREERICLVTTNFQTKSMSSTVSDTSCTFPSGDGIFWKHWIQTKDGQCGSPLVSTRDGFIVGIHSASNFTNTNNYFTSVPKNFMELLTNQEAQQWVSGWRLNADSVLWGGHKVFMVKPEEPFQPVKEATQL [M125T]
area with substrate ANLYFQS: 0.123 | area with substrate CNLYFQS: 0.0689 | area with substrate DNLYFQS: 0.072 | area with substrate FNLYFQS: 0.0685 | area with substrate GNLYFQS: 0.0733 | area with substrate HNLYFQS: 0.068 | area with substrate INLYFQS: 0.0679 | area with substrate KNLYFQS: 0.0599 | area with substrate LNLYFQS: 0.0675 | area with substrate NNLYFQS: 0.0705 | area with substrate PNLYFQS: 0.0749 | area with substrate SNLYFQS: 0.0681 | area with substrate TNLYFQS: 0.0703 | area with substrate VNLYFQS: 0.0742 | area with substrate WNLYFQS: 0.06 | area with substrate YNLYFQS: 0.0584

MGESLFKGPRDYNPISSSICHLTNESDGHTTSLYGIGFGPFIITNKHLFRRNNGTLVVQSLHGVFKVKDTTTLQQHLVDGRDMIIIRMPKDFPPFPQKLKFREPQREERICLVTTNFQTKSMSSNVSDTSCTFPSGDGIFWKHWIQTKDGQCGSPLVSTRDGFIVGIHSASNFTNTNNYFTSVPKNFMELLTNQEAQQWVSGWRLNADSVLWGGHKVFMVKPEEPFQPVKEATQL [M125N]
area with substrate ANLYFQS: 0.0526 | area with substrate CNLYFQS: 0.0699 | area with substrate DNLYFQS: 0.0827 | area with substrate FNLYFQS: 0.0673 | area with substrate GNLYFQS: 0.0797 | area with substrate HNLYFQS: 0.0654 | area with substrate INLYFQS: 0.0406 | area with substrate KNLYFQS: 0.0703 | area with substrate LNLYFQS: 0.052 | area with substrate MNLYFQS: 0.074 | area with substrate NNLYFQS: 0.0642 | area with substrate PNLYFQS: 0.0619 | area with substrate RNLYFQS: 0.0539 | area with substrate SNLYFQS: 0.0592 | area with substrate TNLYFQS: 0.0618 | area with substrate WNLYFQS: 0.0643 | area with substrate YNLYFQS: 0.0443

MGESLFKGPRDYNPISSSICHLTNESDGHTTSLYGIGFGPFIITNKHLFRRNNGTLVVQSLHGVFKVKDTTTLQQHLVDGRDMIIIRMPKDFPPFPQKLKFREPQREERICLVTNNFQTKSMSSMVSDTSCTFPSGDGIFWKHWIQTKDGQCGSPLVSTRDGFIVGIHSASNFTNTNNYFTSVPKNFMELLTNQEAQQWVSGWRLNADSVLWGGHKVFMVKPEEPFQPVKEATQL [T115N]
area with substrate ANLYFQS: 0.0756 | area with substrate CNLYFQS: 0.0689 | area with substrate DNLYFQS: 0.0841 | area with substrate FNLYFQS: 0.0613 | area with substrate HNLYFQS: 0.0612 | area with substrate INLYFQS: 0.0607 | area with substrate KNLYFQS: 0.0807 | area with substrate SNLYFQS: 0.0789 | area with substrate YNLYFQS: 0.0862

MGESLFKGPRDYNPISSSICHLTNESDGHTTSLYGIGFGPFIITNKHLFRRNNGTLVVQSLHGVFKVKDTTTLQQHLVDGRDMIIIRMPKDFPPFPQKLKFREPQREERICLVTTNHQTKSMSSMVSDTSCTFPSGDGIFWKHWIQTKDGQCGSPLVSTRDGFIVGIHSASNFTNTNNYFTSVPKNFMELLTNQEAQQWVSGWRLNADSVLWGGHKVFMVKPEEPFQPVKEATQL [F117H]
area with substrate ANLYFQS: 0.0589 | area with substrate CNLYFQS: 0.0702 | area with substrate DNLYFQS: 0.0842 | area with substrate GNLYFQS: 0.0532 | area with substrate HNLYFQS: 0.0639 | area with substrate INLYFQS: 0.0625 | area with substrate KNLYFQS: 0.0482 | area with substrate LNLYFQS: 0.0609 | area with substrate MNLYFQS: 0.0762 | area with substrate NNLYFQS: 0.0734 | area with substrate PNLYFQS: 0.0619 | area with substrate QNLYFQS: 0.0933 | area with substrate SNLYFQS: 0.059 | area with substrate TNLYFQS: 0.0709 | area with substrate WNLYFQS: 0.0638 | area with substrate YNLYFQS: 0.0669
